Measurements reported in the supplement of paper PMC8183993.
Where “and” joins values, the source holds several entries; their conditions need not be identical. Identical values can stand only once. Counter-ions that a name gives are not always drawn. ± gives the standard deviation of the averaged measurements. Whole data set: some 3,200 compounds, median “nuclei count (viability) relative to DMSO” near 99, cut for the lowest 2% near 16. Some of the results follow.

System: U2OS
Test: nuclei count (viability) relative to DMSO (% of DMSO); higher = more viable cells
Details: 10 µM; 24 h
Experimental: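 Primary image-based screen in U2OS cells: compounds at 10 uM for 24 h, then a 1 h o-propargyl-puromycin (OPP) pulse, click labelling, and high-throughput microscopy. Mean cytoplasmic OPP intensity and nuclei count were normalised to DMSO wells within each plate (DMSO = 100) and averaged over triplicate plates.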

Row | Structure (SMILES) | nuclei count
1 | Nc1nc2c(nc(Br)n2[C@@H]2O[C@@H]3COP(=O)(O)O[C@H]3[C@H]2O)c(=O)[nH]1 [8-Bromo-cGMP, sodium salt] | 99.4
2 | CN(NC(=O)CC(=O)NN(C)C(=S)c1ccccc1)C(=S)c1ccccc1 [Elesclomol] | 81.7
3 | Fc1ccc(-c2nc3n(c2-c2ccncc2)CCS3)cc1 | 103
4 | CCC[C@H](N[C@@H](C)C(=O)N1[C@H](C(=O)O)C[C@@H]2CCCC[C@@H]21)C(=O)OCC [Perindopril Erbumine (Aceon)] | 106
5 | CCC[C@H](N[C@@H](C)C(=O)N1[C@H](C(=O)O)C[C@@H]2CCCC[C@@H]21)C(=O)OCC [Perindopril] | 113
6 | Nc1ccc(C(=O)NCC(=O)O)cc1 [Aminohippuric acid] | 102
7 | COc1ccc(NS(=O)(=O)c2ccc(N)cc2)nn1 [Sulfamethoxypyridazine] | 112
8 | CC1(C)OC(=O)NC1=O [Dimethadione] | 119
9 | N[C@@H](C(=O)O)c1ccc(C(=O)O)c(C(=O)O)c1 | 108
10 | N=C(N)NCC1COC2(CCCCC2)O1 (configuration not stated) [Guanadrel sulfate] | 98.9
11 | Nc1ccc(S(=O)(=O)c2ccc(N)cc2)cc1 [Dapsone] | 88.6
12 | O=Nc1ccc(O)c2ncccc12 | 41.2 and 50.6
13 | O=C(c1ccc(C(=O)N2CCC(N3CCCC3)CC2)c(Nc2ccccc2)c1)N1CCC(N2CCCC2)CC1 | 103
14 | OC[C@H]1O[C@@H](Oc2ccc(O)cc2)[C@H](O)[C@@H](O)[C@@H]1O [Arbutin] | 108
15 | CN(C)CCc1c[nH]c2ccc(Cn3cncn3)cc12 [Rizatriptan Benzoate (Maxalt)] | 105
16 | OCCN1CCN(CCCN2c3ccccc3Sc3ccc(Cl)cc32)CC1 [Perphenazine] | 98.6
17 | N[C@H]1C(O)O[C@H](CO)[C@@H](O)[C@@H]1O (some centres not stated) [Glucosamine HCl] | 77.3
18 | COC1=CC(c2cc3ccccc3[nH]2)=N/C1=C\c1[nH]c(C)cc1C [Obatoclax mesylate (GX15-070)] | 45.5
19 | O=c1oc(Cl)c(Cl)c2ccccc12 [3,4-Dichloroisocoumarin] | 101
20 | C=C1C[C@H]2[C@@H]3C=C(C)C4=CC(=O)CC[C@]4(C)[C@H]3CC[C@]2(C)[C@@]1(OC(C)=O)C(C)=O [Melengestrol acetate] | 102
21 | CC(C)C[C@@H](C=O)NC(=O)[C@H](CC(C)C)NC(=O)[C@H](CC(C)C)NC(=O)OCc1ccccc1 | 10.9 and 7.59

Row | Structure (SMILES) | nuclei count
22 | CCN(CC)Cc1ccc2cc(COC(=O)Nc3ccc(C(=O)NO)cc3)ccc2c1 [ITF2357 (Givinostat)] | 14.7
23 | CC(=O)Oc1cccc2c1C(=O)c1c(OC(C)=O)cc(C(=O)O)cc1C2=O [Diacerein] | 110
24 | CC(C)(C#N)c1ccc(N2C(=O)OCc3cnc4ccc(-c5cnc6ccccc6c5)cc4c32)cc1 | 102
25 | NC(C(=O)O)c1cc(O)cc(O)c1 (racemic) | 101
26 | COc1nc(C)nc(Cl)c1NC1=NCCN1 [Moxonidine] | 102
27 | COc1nc(C)nc(Cl)c1NC1=NCCN1 [Moxonidine hydrochloride] | 102
28 | Cc1ccc(NC(=O)c2ccc(CN3CCN(C)CC3)cc2)cc1Nc1nc(-c2cccnc2)cs1 [Masitinib (AB1010)] | 90.7
29 | CNCCN1CCC(OCc2ccccc2)CC1 | 100
30 | CCCC[C@@H](C=O)NC(=O)[C@H](CC(C)C)NC(=O)OCc1ccccc1 [Calpeptin] | 102 ± 1.9
31 | NCCS(=O)(=O)O [Taurine] | 106
32 | COc1cc2nc(N3CCN(C(=O)c4ccco4)CC3)nc(N)c2cc1OC [Prazosin hydrochloride] | 95.8 ± 3.5
33 | CCn1cc(C(=O)O)c(=O)c2cnc(N3CCNCC3)nc21 [Pipemidic acid] | 104
34 | N#CC(C#N)=C(N)/C(C#N)=C/c1ccc(O)cc1 | 102
35 | O=c1c(O)c(-c2cc(O)c(O)c(O)c2)oc2cc(O)cc(O)c12 [Myricetin (Cannabiscetin)] | 94.5
36 | CCN(CC)CCOc1ccc(Cc2ccccc2)cc1 [DPPE fumarate] | 101
37 | Cc1cc(Cn2cnc3c2CC(C(=O)O)N(C(=O)C(c2ccccc2)c2ccccc2)C3)ccc1N(C)C (configuration not stated) | 101
38 | Cc1ccc(S(=O)(=O)NC(=O)NN2CC3CCCC3C2)cc1 (configuration not stated) [Gliclazide] | 106
39 | O=c1c(O)cccc2cc(O)c(O)c(O)c12 [Purpurogallin] | 90.8
40 | c1ccc(C(NCCNC(c2ccccc2)c2ccccc2)c2ccccc2)cc1 [AMN 082 dihydrochloride] | 104
41 | CC(=O)N[C@@H](CC(=O)N[C@@H](CCC(=O)O)C(=O)O)C(=O)O [Spaglumic acid] | 106 ± 16
42 | Cc1cccc(/C=C/c2ccccc2)n1 | 105

Row | Structure (SMILES) | nuclei count
43 | COc1ccc2cc(CCC(C)=O)ccc2c1 [Nabumetone] | 102
44 | COc1ccc(-c2oc3c(CC=C(C)C)c(O[C@@H]4O[C@H](CO)[C@@H](O)[C@H](O)[C@H]4O)cc(O)c3c(=O)c2O[C@@H]2O[C@@H](C)[C@H](O)[C@@H](O)[C@H]2O)cc1 [Icariin] | 107
45 | Cc1cc(C)cc(C(=O)N(C)[C@H](Cc2ccc(-c3ccccc3)cc2)C(=O)N[C@@H](Cc2c[nH]c3ccccc23)C(=O)O)c1 | 86.9
46 | C[C@H]1[C@@H](O)O[C@@H]2O[C@@]3(C)CC[C@H]4[C@H](C)CC[C@@H]1[C@@]24OO3 [Dihydroartemisinin (DHA)] | 69.8
47 | CCn1cc(C(=O)O)c(=O)c2ccc(C)nc21 [Nalidixic acid (NegGram)] | 87.3
48 | CCn1cc(C(=O)O)c(=O)c2ccc(C)nc21 [Nalidixic acid sodium salt] | 95.7
49 | C#CCN(C)Cc1ccccc1 [Pargyline hydrochloride] | 95
50 | Cc1nc2c(c(=O)[nH]1)CSCC2 | 110
51 | CCCCCCCC/C=C\CCCCCCCC(=O)N[C@@H](CO)Cc1ccc(O)cc1 | 94.6
52 | CCN(CC)CCNC(=O)c1cc(S(C)(=O)=O)ccc1OC [Tiapride hydrochloride] | 101
53 | O=C(CCCN1CC=C(n2c(=O)[nH]c3ccccc32)CC1)c1ccc(F)cc1 [Droperidol] | 107
54 | CC(C)N1CCN(c2ccc(OCC3COC(Cn4cncn4)(c4ccc(Cl)cc4Cl)O3)cc2)CC1 (configuration not stated) [Terconazole] | 99.7
55 | CN1C2CCCC1CC(NC(=O)c1nn(C)c3ccccc13)C2 (configuration not stated) [Granisetron] | 114
56 | CN1C2CCCC1CC(NC(=O)c1nn(C)c3ccccc13)C2 (configuration not stated) [Granisetron HCl] | 104
57 | CCN(CC)CC#CCOC(=O)C(O)(c1ccccc1)C1CCCCC1 (configuration not stated) [Oxybutynin chloride] | 106
58 | Cc1ncc([N+](=O)[O-])n1CCO [Metronidazole] | 86.1
59 | OC(CCN1CCCCC1)(c1ccccc1)C1CC2C=CC1C2 (configuration not stated) [Biperiden hydrochloride] | 101
60 | OC(CCN1CCCCC1)(c1ccccc1)C1CC2C=CC1C2 (configuration not stated) [Biperiden HCl] | 95.1
61 | O=C(NCCNCC(O)COc1ccc(O)cc1)N1CCOCC1 (configuration not stated) [Xamoterol hemifumarate] | 106 ± 2.1
62 | CCN(Cc1ccncc1)C(=O)C(CO)c1ccccc1 (configuration not stated) [Tropicamide] | 103.5 ± 0.076
63 | CN(C)CCOC1=Cc2ccccc2Sc2ccc(Cl)cc21 [Zotepine] | 104

Row | Structure (SMILES) | nuclei count
64 | Cc1c(C(=O)N(C)C2CCCCC2)sc2nc3ccc(N)cc3n12 | 99.2
65 | COc1ccc(C(=O)NCc2cccnc2)cc1C(=O)NCc1cccnc1 [Picotamide monohydrate] | 100
66 | Cc1cc([N+](=O)[O-])ccc1NS(=O)(=O)c1cc(Cl)ccc1Cl | 108
67 | COc1ccc(COc2ccc(Cc3cnc(N)nc3N)cc2OC)cc1 | 96.5
68 | NC[C@H]1O[C@H](O[C@H]2[C@H](O[C@@H]3O[C@H](CO)[C@@H](O)[C@H]3O)[C@@H](O)[C@H](N)C[C@@H]2N)[C@H](N)[C@@H](O)[C@@H]1O [Ribostamycin sulfate salt] | 99.9
69 | Cc1ccc(C(=O)c2cc(O)c(O)c([N+](=O)[O-])c2)cc1 [Tolcapone] | 106
70 | O=Nc1c(-c2c(O)[nH]c3ccccc23)[nH]c2ccccc12 [Indirubin-3'-oxime] | 71.8
71 | COc1ccc2[nH]cc(CCNC(C)=O)c2c1 [Melatonin] | 102 ± 2.4
72 | C=CC[C@@H]1/C=C(\C)C[C@H](C)C[C@H](OC)[C@H]2O[C@@](O)(C(=O)C(=O)N3CCCC[C@H]3C(=O)O[C@H](/C(C)=C/[C@@H]3CC[C@@H](O)[C@H](OC)C3)[C@H](C)[C@@H](O)CC1=O)[C@H](C)C[C@@H]2OC [FK-506 (Tacrolimus)] | 102
73 | OC[C@H]1O[C@@H](Oc2cc(O)cc(/C=C/c3ccc(O)cc3)c2)[C@H](O)[C@@H](O)[C@@H]1O [Polydatin (Piceid)] | 97.2
74 | O=c1c(O)c(-c2ccc(O)cc2O)oc2cc(O)cc(O)c12 [Morin hydrate (Aurantica)] | 103
75 | CC(/C=C/c1cccc(Oc2ccc(F)cc2)c1)N(O)C(N)=O (configuration not stated) | 101
76 | COc1ccc(C2CNC(=O)C2)cc1OC1CCCC1 (configuration not stated) [Rolipram] | 102 ± 3
77 | Nc1c(S(=O)(=O)O)cc(Nc2cccc3ccccc23)c2c1C(=O)c1ccccc1C2=O | 99.5
78 | CCCCN1CCCC1CNC(=O)c1cc(C#N)c2ccccc2c1OC (configuration not stated) [Nafadotride] | 96.4
79 | CC(=O)Nc1nc(C)c(-c2ccc(Cl)c(S(=O)(=O)NCCO)c2)s1 | 90.3
80 | CN(Cc1ccccc1)C(=O)[C@H](Cc1ccc2ccccc2c1)NC(=O)[C@@H]1CCCN1C(=O)Nc1ccccc1[N+](=O)[O-] | 100
81 | c1ccc([C@H]2CN3CCSC3=N2)cc1 [Levamisole hydrochloride] | 108
82 | c1ccc([C@H]2CN3CCSC3=N2)cc1 [Levamisole HCl] | 96.5
